Among all 310,000 compounds or so, about 2,200 (0.71%) showed an effect of 50% or more. The effect is printed as a negative number. The list shows a part of the results.
Each compound was assayed against human ether-à-go-go-related gene (hERG) potassium channel (human, UniProt Q12809) (assay: primary screen, population patch clamp on CHO cells stably expressing hERG).
Sequence of human ether-à-go-go-related gene (hERG) potassium channel (Q12809 whole entry, looked up): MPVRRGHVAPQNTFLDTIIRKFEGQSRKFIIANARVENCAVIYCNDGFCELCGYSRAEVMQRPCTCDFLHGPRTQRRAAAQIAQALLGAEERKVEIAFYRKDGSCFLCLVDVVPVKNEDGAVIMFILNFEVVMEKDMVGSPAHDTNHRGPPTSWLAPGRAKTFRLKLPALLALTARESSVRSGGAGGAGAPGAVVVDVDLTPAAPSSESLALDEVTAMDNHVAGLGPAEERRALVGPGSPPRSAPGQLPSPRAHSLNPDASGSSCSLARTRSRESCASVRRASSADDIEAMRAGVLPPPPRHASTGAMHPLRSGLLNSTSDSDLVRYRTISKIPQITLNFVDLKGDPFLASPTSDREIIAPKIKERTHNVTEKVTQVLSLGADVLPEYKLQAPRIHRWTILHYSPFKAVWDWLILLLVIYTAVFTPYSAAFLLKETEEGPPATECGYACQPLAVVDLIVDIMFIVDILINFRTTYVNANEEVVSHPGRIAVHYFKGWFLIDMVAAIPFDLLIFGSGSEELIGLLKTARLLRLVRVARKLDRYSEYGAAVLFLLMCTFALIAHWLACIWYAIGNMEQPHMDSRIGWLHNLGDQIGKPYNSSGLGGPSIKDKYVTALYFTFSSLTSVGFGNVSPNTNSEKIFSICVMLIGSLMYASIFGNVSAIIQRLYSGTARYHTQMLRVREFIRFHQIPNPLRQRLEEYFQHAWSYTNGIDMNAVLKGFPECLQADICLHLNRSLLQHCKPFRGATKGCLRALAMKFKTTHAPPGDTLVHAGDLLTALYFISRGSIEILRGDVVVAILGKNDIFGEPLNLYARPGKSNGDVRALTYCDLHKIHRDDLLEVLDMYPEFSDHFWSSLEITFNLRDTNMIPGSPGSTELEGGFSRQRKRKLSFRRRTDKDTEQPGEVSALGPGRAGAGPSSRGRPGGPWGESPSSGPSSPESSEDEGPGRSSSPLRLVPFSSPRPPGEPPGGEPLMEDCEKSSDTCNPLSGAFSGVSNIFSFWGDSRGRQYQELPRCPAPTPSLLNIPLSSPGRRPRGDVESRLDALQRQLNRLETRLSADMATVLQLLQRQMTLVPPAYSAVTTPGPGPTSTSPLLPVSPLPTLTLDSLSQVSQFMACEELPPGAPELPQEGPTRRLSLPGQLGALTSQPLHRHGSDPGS

SMILES | hERG current change (%, negative = inhibition) at 1uM
CCCCC(=O)N/N=C/c1c(O)n(C2CC2)c(=S)[nH]c1=O | 4.87%
O=C(COC(=O)CCSc1ccc(Cl)cc1)NCc1ccccc1 | 10.7%
COc1ccccc1CNCc1cc(Br)ccc1OC.O=C(O)C(=O)O | 1.94%
Cc1ccc(CNC(=O)CN2C(=O)NC3(CC(C)CC(C)(C)C3)C2=O)cc1 (stereo not shown) | 2.6%
COc1ccc(CCNC(=O)c2ccc3c(c2)N(Cc2ccccc2)CCS3)cc1OC | 19.7%
CC1CCCN(S(=O)(=O)c2ccc(-c3ccc(=O)[nH]n3)o2)C1 (stereo not shown) | 4.45%
CCOc1cc(NC(=S)Nc2cccc(OC)c2)c(OCC)cc1NC(=O)C(C)C | 10.3%
O=C(COc1cccc(Cl)c1)NCC(c1cccs1)N1CCOCC1 (stereo not shown) | 10.8%
Cc1ccccc1CC1(CO)CCCN(Cc2c(C)nn(C)c2Cl)C1 (stereo not shown) | -13.8%
CCCCCCCCCCOC(=O)C[N+](C)(C)C/C=C(/C)Cl.[Br-] | -6.77%
Cc1ccc2[nH]cc(S(=O)(=O)c3ccc(F)cc3)c(=O)c2c1 | 9.95%
O=C(O)c1ccc(/C=C/c2nc3sc4c(c3c(=O)[nH]2)CCC4)cc1 | 9.67%
CC(C)CNC(=O)c1ccccc1-c1ccccc1C(=O)O | 11.7%
CC1(C)CC(NS(=O)(=O)OCC(Cl)(Cl)Cl)c2cc(C#N)ccc2O1 (stereo not shown) | 17.6%
COc1ccc(S(=O)(=O)NC(C(=O)NCCc2ccccn2)C(C)C)cc1 (stereo not shown) | 2.77%
CN(C)Cc1c(C(=O)N/N=C/c2ccc(-c3ccccc3)cc2)nnn1-c1nonc1N | 4.79%
O=C(c1cccc(S(=O)(=O)N2CCCCCC2)c1)N1CCN(c2ccccc2F)CC1 | -6.53%
O=C(Nc1ccc2c(c1)OCO2)C1(S(=O)(=O)c2ccc(Cl)cc2)CC1 | -1.2%
CC1CCN(Cc2csc(N)n2)CC1 | 3.89%
CCCCC(=O)Nc1cccc(NC(=S)NC(=O)Cc2ccccc2)c1 | 5.3%
C=CCn1c(CCC(O)COCCC)n[nH]c1=S (stereo not shown) | 8.13%
Cc1cccc(C)c1NC(=O)CSC(=S)N1CCCC1 | 4.83%
CC(=O)N1CCCc2cc(S(=O)(=O)CCC(=O)N3CCN(c4ccccc4)CC3)ccc21 | 14.6%
ON1C(c2ccccc2C(F)(F)F)N(O)[C@H]2CCCC[C@H]21 (stereo partly shown) | 10.5%
O=c1[nH]c(=O)n(Cc2ccccc2)c(O)c1C=NCCN1CCOCC1 | 27%

Reference: paper PMC4336329 (PLoS ONE, 2015)
